Measurements taken from ChEMBL document CHEMBL1201862, “PubChem BioAssay data set” (2004).
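Step 1: Grow cells in 96-well plates. Step 2: Expose to compound for 48 hours at 5 concentrations. Step 3: Interpolate endpoints linearly; if unreached, use highest concentration. GI50 marks 50% less growth.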 The source made the active and inactive calls. No stated cut-off is given here; in the data, active = GI50 up to about 1.1 µM and inactive = higher.

System: NCI-H322M
Experiment: NCI-60 cell line screen, 48 h

Row | Structure (SMILES) | GI50
1 | Cn1c2c(c3ccccc31)CCN1C(=O)CN(C(=O)C3CCCCC3)CC21 (configuration not stated) | inactive: > 100 µM
2 | O=C1c2ccccc2C(=O)c2nc3c(O)cccc3cc21 | inactive: 12.4 µM
3 | COC(=O)C1(Cc2ccc3c(c2)CCC3)Cc2cc3c(cc2C1=O)CCC3 (configuration not stated) | inactive: > 46.5 µM
4 | O=C1c2ccccc2C(=O)C2C3c4ccccc4C(c4ccccc43)C12 (configuration not stated) | inactive: 58.9 µM
5 | CC(=O)/C=C1\CC(=O)Nc2ccccc2N1 | inactive: > 100 µM
6 | O=C(COc1ccc(OCC(=O)N2C(=O)CN(c3ccccc3)C2=S)cc1)N1C(=O)CN(c2ccccc2)C1=S | inactive: > 53.6 µM
7 | CCOP(=O)(CCCC(O)CNc1cc(Cl)nc(N)n1)OCC (configuration not stated) | inactive: > 100 µM
8 | CC(C)COC1Sc2ccccc2S1 | inactive: 17.3 µM
9 | CC(=O)Nc1c(C)cc(OCC(=O)O)cc1C | inactive: > 100 µM
10 | COc1ccc(C2Oc3ccc(Cl)cc3C=C2[N+](=O)[O-])cc1 (configuration not stated) | inactive: > 100 µM
11 | O=C(Cc1nc2ccccc2o1)C(=O)Nc1cccc(C(F)(F)F)c1 | inactive: > 100 µM
12 | O=C(O)CSc1nnc(-c2ccco2)[nH]1 | inactive: > 100 µM
13 | Cc1cc(Cl)ccc1NC(=O)C(=O)Cc1ccc([N+](=O)[O-])c([N+](=O)[O-])c1CC(=O)C(=O)Nc1ccc(Cl)cc1C | inactive: > 100 µM
14 | C=C(CN(CC(=C)C(=O)c1ccccc1)C(C)(C)C)C(=O)c1ccccc1 | inactive: 34.4 µM
15 | CCOP(=O)(OCC)OC1CC(n2cnc3c(N(CC)CC)ncnc32)OC1CO[Si](C)(C)C(C)(C)C (configuration not stated) | inactive: 18.5 µM
16 | CCC(=O)N(c1ccccc1)C(C)CN1CCC(O)(c2ccccc2)CC1 (configuration not stated) | inactive: > 100 µM
17 | C/C(=C\Cc1ccc(F)cc1)CCCCCC/C(C)=C/Cc1ccc(F)cc1 | inactive: 30.8 µM
18 | Cn1c2c3ccc(Cl)cc3nc-2c(Cl)c2ccccc21 | inactive: 48.6 µM
19 | O=c1cccccc1NCCCCNc1cccccc1=O | inactive: > 100 µM
20 | COc1ccc(-c2c(C#N)c(=O)nc(SC)n2C2OCC(OC(C)=O)C(OC(C)=O)C2OC(C)=O)cc1 (configuration not stated) | inactive: > 100 µM
21 | CN(C)/C=N/CCN1CCOCC1 | inactive: > 100 µM
22 | CCOC(=O)NC(=O)c1cn(-c2ccc(CCOC(=O)CCCCCCCCC(=O)OCCc3ccc(-n4cc(C(=O)NC(=O)OCC)c(=O)[nH]c4=O)cc3)cc2)c(=O)[nH]c1=O | inactive: 90.2 µM
23 | C/C(=N/O)c1sc(-c2nc(C)c(/C(C)=N\O)s2)nc1C | inactive: > 100 µM

Row | Structure (SMILES) | GI50
24 | COc1c(-c2ccc(O)c(O)c2)oc2c(O)c(O)cc(O)c2c1=O | inactive: > 100 µM
25 | CC1/C=C/C=C/CC/C=C/C=C/C=C/C=C/C(OC2OC(C)C(O)C(N)C2O)CC2OC(CC(O)C(O)CCC(O)CC(O)CC(O)CC(=O)OC(C)C(C)C1O)CC(O)C2C(=O)O (configuration not stated) | inactive: 16.4 µM
26 | C[C@@H]1C(=O)CC2(O)[C@@]13C[C@@H](OC(=O)[C@@H]3O)[C@@H](C)[C@@]21COC1=O (some centres not stated) | inactive: > 100 µM
27 | S=C(N/N=C/c1ccccn1)N1CCCCCC1 | active: < 0.0446 µM
28 | Clc1ccc(-c2nnc(-c3cccc4ccccc34)o2)cc1Cl | inactive: > 100 µM
29 | CN(C)CCNC(=O)c1cccc2nc3c(C(=O)NCCN(C)C)cccc3nc12 | active: 0.695 µM
30 | CCn1c(-c2cc3ccccc3cc2OC(C)=O)n[nH]c1=S | inactive: 32.5 µM
31 | Cc1c2cc[n+](C)cc2c(C)c2c1[nH]c1ccccc12 | active: 0.755 µM
32 | CCOP(=O)(OCC)OC1c2[nH]ccc2-c2cc(C(=O)OC)[nH]c2C1OC (configuration not stated) | inactive: > 100 µM
33 | CCCCn1c(N)c(-c2nc3ccccc3o2)sc1=S | inactive: 22.1 µM
34 | COc1nc(=O)cc(N)n1C1OC(CO)C(O)C1O (configuration not stated) | inactive: > 100 µM
35 | CC[C@]12C=CCN3CC[C@@]4(c5cc(N=O)c(OC)cc5N(C)[C@H]4[C@@](O)(C(=O)NC(Cc4c[nH]c5ccccc45)C(=O)OC)[C@@H]1O)[C@@H]32 (some centres not stated) | inactive: 15.1 µM
36 | COc1cc(C(=O)/C=C/c2ccc(OCCSCCCCCCCCCCSCCOc3ccc(/C=C/C(=O)c4cc(OC)c(OC)c(OC)c4)cc3)cc2)cc(OC)c1OC | inactive: > 100 µM
37 | C#CCN(N=O)C(=O)NCCCCC(NC(=O)OCc1ccccc1)C(=O)OCc1ccccc1 (configuration not stated) | inactive: > 100 µM
38 | O=C1C(=O)N(c2ccc(Cl)cc2)C(=O)/C(=N/c2cccc3c(=O)[nH][nH]c(=O)c23)C1c1nc2ccccc2o1 (configuration not stated) | inactive: > 100 µM
39 | CCn1cc(C(=O)O)c(=O)c2cc3c(cc21)S(=O)(=O)CC3 | inactive: > 100 µM
40 | O=C(CCc1ccc(O)c(O)c1)NCCc1ccc(O)c(O)c1 | inactive: > 100 µM
41 | C=C(C)[C@@]1(OC(=O)c2cc([N+](=O)[O-])cc([N+](=O)[O-])c2)C[C@@H]2CCCC[C@@H]21 | inactive: > 100 µM
42 | CNS(=O)(=O)NN(C)S(=O)(=O)c1ccc(Cl)cc1 | inactive: > 100 µM
43 | COc1ccc2[nH]c(Cl)c(/C=C3/C(=O)Nc4cc(C)c(OC)cc43)c2c1 | inactive: 11.6 µM
44 | CCOC(=O)c1ccc(-n2cnc(-c3ccc([N+](=O)[O-])cc3)c2)cc1 | inactive: > 100 µM
45 | c1ccc(CSC2(SCc3ccccc3)CCCCC2)cc1 | inactive: > 10 µM
46 | C/C([O-])=C(/c1nc(-c2ccc([N+](=O)[O-])o2)no1)[n+]1cc(C)ccc1C | inactive: 14.4 µM

Row | Structure (SMILES) | GI50
47 | COC(=O)C(/C(=N\O)C(=O)Nc1cccc(Cl)c1C)c1cnc2ccccc2n1 (configuration not stated) | inactive: > 100 µM
48 | CC(C)CC(N/C=C1/N=C(c2ccccc2)OC1=O)C(=O)O (configuration not stated) | inactive: > 100 µM
49 | CC(=S)NNC(=O)c1ccncc1 | inactive: > 100 µM
50 | CCCCCCCCCCCCCCCCCc1cccc(OCOCCOC)c1CO | inactive: > 100 µM
51 | COc1ccc2c(c1)CN1C(=N2)CSC1c1cc([N+](=O)[O-])ccc1Cl (configuration not stated) | inactive: 33.5 µM
52 | CC1=NN(c2nc(N)nc(/C(C#N)=C/c3ccc([N+](=O)[O-])o3)n2)C(C)(C)C1 | inactive: 22.5 µM
53 | Cn1c2c([N+](=O)[O-])[se]nc2c(=O)n1-c1ccc([N+](=O)[O-])cc1 | inactive: 3.47 µM
54 | COc1cc2c(c(OC)c1OC)-c1ccc(SC)c(=O)cc1[C@@H](NC(=O)c1cccc([N+](=O)[O-])c1)CC2 | active: 0.0353 µM
55 | CC(=O)/C=C1\Nc2sc(C)c(C)c2C(=O)S1 | inactive: > 100 µM
56 | CCCCCCCCCC/C=C/CC(=O)SCCNC(=O)CCNC(=O)[C@@H](O)C(C)(C)COP(=O)(O)OP(=O)(O)OCC1OC(n2cnc3c(N)ncnc32)C(O)C1OP(=O)(O)O (some centres not stated) | inactive: > 10 µM
57 | Oc1ccc(C(O)(c2ccccc2)c2ccccc2)c2ccccc12 | inactive: 2.12 µM
58 | CCc1cc2c(cc1CCCC(=O)O)CC1(Cc3ccc(C(=O)O)cc3C1)C2 (configuration not stated) | inactive: > 100 µM
59 | O=C(c1ccccc1)c1ccc2[nH]c(-c3c(Cl)c(Cl)c(Cl)c(Cl)c3-c3nnc(-c4ccccc4)o3)nc2c1 | inactive: 62.1 µM
60 | CC(=O)CC(=O)OC1CC(C)CCC1C(C)C (configuration not stated) | inactive: 93.8 µM
61 | CCCCCCCCCC(=O)CC(=O)c1c(O)cccc1O | inactive: 39.7 µM
62 | O=C(CN1CCCCC1)CC(O)(C(F)(F)F)C(F)(F)F | inactive: > 100 µM
63 | COc1cc(C=O)cc(O)c1O | inactive: > 100 µM
64 | CC1=C2NCN(C)N=C2C(C#N)(C#N)C1(C#N)C#N | inactive: > 100 µM
65 | O=C1c2cccc3cc([N+](=O)[O-])cc(c23)C(=O)N1c1ccc(OCCN2CCCC2)cc1 | inactive: > 100 µM
66 | CC(=O)OCC1OC(N2C(=S)N[C@H]([C@@H](O)[C@H](O)[C@H](O)CO)[C@H]2O)C(OC(C)=O)C(OC(C)=O)C1OC(C)=O (some centres not stated) | inactive: > 100 µM
67 | CC(=O)NC1=C(C)C(=O)c2c(nc3n2CCC3O)C1=O (configuration not stated) | inactive: > 100 µM
68 | N#C/C(=C1\SCC(=O)N1c1ccccc1)c1nc2ccccc2[nH]1 | inactive: > 100 µM
69 | Cc1cc(C)c2c(c1)CC1(Cc3ccc(C)c(C)c3C1=O)C2=O (configuration not stated) | inactive: > 100 µM

Row | Structure (SMILES) | GI50
70 | CN(C)CCNC(=O)c1ccc(Cl)c2ccc(-c3ccccc3)nc12 | inactive: 3.14 µM
71 | Cn1c2ccccc2n2c(=O)c3c(c(C#N)c12)CCCC3 | inactive: > 100 µM
72 | S=P(N1CCCC1)(N1CC1)N1CC1 | inactive: > 100 µM
73 | c1c[nH]c(C23C4C5C6C4C2C6C53)n1 (configuration not stated) | inactive: > 100 µM
74 | CC1COC(c2cn[nH]c2C(N)=O)C1O (configuration not stated) | inactive: > 100 µM
75 | C=CCOC(=O)CCCCCCCCCCCCCCCOC(=O)c1c(CCC[C@@H](C)O[Si](C)(C)C(C)(C)C)nc([O-])[n+]2c1CC[C@H]2CC1(CC/C=C\[C@H](CC)O[Si](C(C)C)(C(C)C)C(C)C)OCCO1 | inactive: 29.2 µM
76 | CSc1nncc2[nH]c(C)nc12 | inactive: > 100 µM
77 | COc1ccc(-c2nnc(-c3nsc4ccccc34)o2)cc1 | inactive: > 100 µM
78 | C=CC[C@H]1O[Si](C(C)(C)C)(C(C)(C)C)[C@H](C)[C@H]1C | inactive: > 100 µM
79 | Cc1c2c(cc[n+]1C)O[B-](c1ccccc1)(c1ccccc1)O2 | inactive: 66.8 µM
80 | COc1cc(/C=N\O)nc(-c2ccccn2)c1 | active: 0.228 µM
81 | COc1ccc2nc3cc(Cl)ccc3c(Sc3ccc(N)cc3)c2c1 | inactive: 17.7 µM
82 | COc1cc2c(cc1O)C1Cc3ccc(OC)c(O)c3C(C2)N1C (configuration not stated) | inactive: > 100 µM
83 | O=[N+]([O-])c1ccc(/C=N/C2CCCCC2)cc1 | inactive: > 100 µM
84 | CCCCC(C)/C=C/C(O)=C1\C(=O)O/C(=C\C(=O)O)C1=O (configuration not stated) | inactive: > 100 µM
85 | O=C(O)C1OC1C(=O)O (configuration not stated) | inactive: > 100 µM
86 | COc1ccc2c(Cl)cc(NC(=S)Nc3ccccc3)nc2c1 | inactive: 32 µM
87 | CC(C)c1cc(=O)[nH]c2cc(N)ccc12 | inactive: > 100 µM
88 | COC1=CC(=O)c2c(c(-c3nc(C)cs3)cn2C)C1=O | inactive: 4.51 µM
89 | Cc1ccccc1NC(=O)C(=O)C(C(=O)c1ccccc1F)C1OC(=O)c2ccccc21 (configuration not stated) | inactive: 23.9 µM
90 | Cc1ccc2c(C3Cc4ccccc4N3C(=O)/C=C\C(=O)O)c(C)[nH]c2c1 (configuration not stated) | inactive: > 100 µM
91 | N#CC12Cc3ccc4c(c3-c3cccc(c31)CCN2C(=O)c1ccccc1)OCO4 (configuration not stated) | inactive: > 100 µM
92 | NC(=O)C1=CC2C3C=CC2(O)C(=O)OC3O1 (configuration not stated) | inactive: 13.6 µM
